According to PubChem BioAssay AID1508623 (National Center for Advancing Translational Sciences (NCATS), 2021):
About 450 (0.94%) of roughly 48,000 compounds were called active. Roughly 19% stayed inconclusive and do not appear here. Calls follow the shape of the dose curve; as a rule, active = well fitted inhibition curve with a large enough effect; inconclusive = small, poorly fitted or top-dose-only effect; inactive = no such curve, though single readings can be large or run the other way. This is one part of the list.

experiment: Primary qHTS for Identification of Small Molecule Inhibitors of Huntingtin Promoter Activity; conditions: HEK293 HTT promoter firefly luciferase reporter (activity 0% = vehicle and -100% = no light), 24 h; series mostly up to 57.5 µM; activity change, negative = inhibition: at the top concentration; also: nearly all actives have a fitted effect of over 50% in size
In short: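 Firefly luciferase readout (Dual-Glo, 10 min RT) after 24 h, 37 °C compound exposure (final up to 57.5 uM) of HEK293 reporter cells cultured 24 h beforehand; PTC124 at 50 uM final as control inhibitor; activity scaled vehicle 0%, zero RLU -100%.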

Structure (SMILES) | activity change, negative = inhibition
COC(=O)c1ccc(Cl)cc1NC(=O)NCCc1c(C)nn(C)c1C | inactive: -0.375%
CC(C)c1ccc(NC(=O)Cn2c(=O)n(CC3CCC(C(=O)NCCc4ccccc4)CC3)c(=O)c3ccccc32)cc1 (stereo unspecified) | inactive: 1.07%
Cc1ccc(-n2c(=O)c3cccnc3n2CC(=O)Nc2cc(C)cc(C)c2)cc1 | inactive: -24.4%
COc1ccccc1CNC(=O)Cn1c(=O)nc(-c2ccccc2F)c2cc(Cl)ccc21 | inactive: -3.71%
CC(C)(C)C1CCc2c(sc(NC(=O)Cn3nnc(-c4ccccc4Cl)n3)c2C#N)C1 (stereo unspecified) | inactive: -1.39%
Cc1cccc(N2CCN(C(=O)CS(=O)(=O)c3cccc4nsnc34)CC2)c1C | inactive: -6.74%
CCOC(=O)c1c(C)[nH]c(C)c1S(=O)(=O)N1CCC(C(=O)Nc2cc(C)ccn2)CC1 | inactive: -4.61%
Cc1ccc(Cl)cc1N1CCN(C(=O)C2CCC(CNS(=O)(=O)c3cccs3)CC2)CC1 (stereo unspecified) | inactive: 0%
Cc1ccc(CNc2ccc(-c3nc(-c4ccncc4)no3)cc2[N+](=O)[O-])cc1 | inactive: -4.89%
Cc1ccc(-c2nc(S(=O)(=O)c3ccccc3)c(N3CCN(c4ccccc4)CC3)o2)cc1 | inactive: -3.69%
Cc1ccc2nc(COc3ccccc3NC(=O)COc3ccc(F)cc3)cc(=O)n2c1 | inactive: -4.55%
CCc1ccccc1NS(=O)(=O)c1ccc2[nH]cc(C(=O)N(CC(C)C)CC(C)C)c(=O)c2c1 | inactive: -4.76%
CCc1ccccc1N(CC)C(=O)c1c(C)oc2ncn(C)c(=O)c12 | inactive: 0%
O=C(Nc1ccccc1C(=O)OCc1cc(=O)n2c3c(sc2n1)CCCC3)c1ccc(F)cc1 | inactive: -19.5%
COc1ccc(NC(=O)C2CCN(S(=O)(=O)c3ccc4c(c3)CCCC(=O)N4)CC2)cc1OC | inactive: -3.86%
Cc1cccc(C(C)C)c1NC(=O)Cn1c(=O)oc2cc(S(=O)(=O)N3CCCC3)ccc21 | inactive: -42.5%
CCc1ccc2nc(N(CCN(CC)CC)C(=O)c3cccs3)sc2c1 | inactive: 12.9%
COc1cccc(C(=O)Nc2nc3nc(-c4ccccc4)cc(=O)n3[nH]2)c1 | inactive: -12.4%
O=C1c2oc3ccccc3c(=O)c2C(c2cccc(O)c2)N1c1nncs1 (stereo unspecified) | inactive: -11.4%
CCOC(=O)c1c(-c2ccc(C)cc2)csc1NC(=O)c1cc(=O)c2cc(C)ccc2o1 | inactive: 13.6%
O=C(Cn1c(=O)nc(-c2ccccc2)c2ccccc21)NCCc1ccccc1 | inactive: -2.63%
CC(=O)c1ccc(NC(=O)CN2C(=O)CN(C)C(=O)c3ccccc32)cc1 | inactive: 6.97%
COc1cccc(CNC(=O)C2=C(C)C(=O)OC23CCN(C(C)=O)CC3)c1OC | inactive: -7.15%
COc1ccc(-c2oc3ncn4nc(COc5cccc(C)c5C)nc4c3c2-c2ccc(OC)cc2)cc1 | inactive: 2.26%

Structure (SMILES) | activity change, negative = inhibition
COc1cc(Nc2nc(SCc3ccc(Cl)cc3)nc3ccccc23)cc(OC)c1 | inactive: -24.5%
CCC(C(=O)NCc1cc(OC)ccc1OC)n1nc(C)c2sc3ccccc3c2c1=O (stereo unspecified) | inactive: -13.1%
COc1cccc(C(=O)N2CCC(C(=O)Nc3cccc(Cl)c3)CC2)c1 | inactive: -21.2%
CN(C)c1cccc(C(=O)N2CCC(c3c[nH]c4ccccc34)(c3c[nH]c4ccccc34)CC2)c1 | inactive: -11.3%
O=C(COCc1cc(-c2cccs2)on1)N1CCN(c2ccccc2)CC1 | inactive: -24.3%
COc1ccccc1C(=O)Nc1ccc2nc(SCCOc3ccccc3C)sc2c1 | inactive: -11.7%
CC(C)c1ccc(N2C(=O)CSC23C(=O)N(Cc2cccc(F)c2)c2ccccc23)cc1 (stereo unspecified) | inactive: -25.3%
COc1ccc(OC)c(CNC(=O)C2CCCN(c3ncnc4onc(-c5ccc(F)cc5)c34)C2)c1 (stereo unspecified) | inactive: -4.85%
Fc1ccc(NCc2nnc3n2CCCCC3)cc1Cl | inactive: 11%
COc1ccccc1CNc1nc2c(S(=O)(=O)c3ccc(C)c(C)c3)nnn2c2ccc(Cl)cc12 | inactive: 9.11%
COc1ccc(NC(=O)C(NS(=O)(=O)c2cccc3nsnc23)C(C)C)cc1 (stereo unspecified) | inactive: -10.7% [at 11.5 µM]
CCOC(=O)c1c(NC(=O)c2cc(-c3ccc(Br)cc3)on2)sc(C(C)=O)c1C | inactive: -8.29% [at 11.5 µM]
COc1ccc(NC(=O)c2cc3ccccc3o2)c(OC)c1 | inactive: 97.5%
O=C(c1ccc(F)cc1)c1cn(Cc2ccccc2)c2cc3c(cc2c1=O)OCO3 | inactive: 11.2%
COc1ccc(C2=CC(c3cc(Br)ccc3F)n3c(nc4ccccc43)N2)cc1 (stereo unspecified) | inactive: 64.9% [at 11.5 µM]
CC1CCCN(c2cc3c(cc2F)c(=O)c(S(=O)(=O)c2cccc(Cl)c2)cn3Cc2ccccc2)C1 (stereo unspecified) | inactive: -7.78%
O=C(COc1ccccc1Cl)Nc1ccc(-c2nc3ccccc3s2)cc1 | inactive: 89%
CC(C)NC(=O)c1ccc(Cn2c(SCc3ccc(F)cc3)nc3cccnc32)cc1 | inactive: -10.6%
COCc1nnc(NC(=O)c2cc(OC)c(OC)c(OC)c2)s1 | inactive: 1.82%
Cc1ccc(NC(=O)C2CCCN(S(=O)(=O)c3c(C)n[nH]c3C)C2)c(C)c1 (stereo unspecified) | inactive: -14.9%
CCC(C(=O)Nc1cc(C)ccc1C)n1c(=O)c(C(F)(F)F)nc2ccccc21 (stereo unspecified) | inactive: -28.6%
COc1cccc(CNS(=O)(=O)c2cnc(N)nc2)c1 | inactive: -3.97%
Cc1cc(C)n(-c2nc(C)c(C)c(=O)n2CC(=O)Nc2ccc([N+](=O)[O-])cc2)n1 | inactive: -20.8%
COc1cc(OC)cc(C(=O)Nc2ccc(-c3nc4ccccc4s3)cc2C)c1 | inactive: -6.09%

Structure (SMILES) | activity change, negative = inhibition
COCC(=O)n1nc(-c2ccco2)nc1NCc1ccccc1Cl | inactive: 48.9%
Nc1nc2c(ncn2COC(CO)CO)c(=O)[nH]1 | inactive: 6.36%
C=CCc1cccc2cc(-c3nc4ccc(C)cc4[nH]3)c(=O)oc12 | inactive: 70.9%
C[n+]1c2cc(N)ccc2cc2ccc(N)cc21 (tested in a mixture with another compound) | inactive: -28.8%
COc1ccccc1CNC(=O)CCc1c(C)c2cc3c(C)c(C)oc3cc2oc1=O | inactive: 6.38%
COc1ccc(CCNC(=O)c2ccc3c(c2)N(Cc2ccc(F)cc2)C(=O)c2ccccc2S3(=O)=O)cc1OC | inactive: 8.86%
Cc1c(C(=O)Nc2cccc(C(F)(F)F)c2)sc2nc[nH]c(=O)c12 | inactive: -10.4%
Cc1csc(-c2nnc(Nc3ccc(Oc4ncccc4-c4ccnc(N)n4)cc3)c3ccccc23)c1 | inactive: -26.7%
CCOC(=O)c1ccc(NC(=O)CCCn2c(=O)c3cccn3c3ccccc32)cc1 | inactive: 6.94%
COc1ccc(NC(=O)c2ccc(NC(=O)N3CCSc4ncccc43)cc2)cc1 | inactive: -21.9%
COCCn1c(CNC(=O)c2cccc(C)c2)nc2cccnc21 | inactive: 3.67%
COCCNC(=O)C1CCN(Cc2cc3ccccc3n2Cc2ccc(C)cc2)CC1 | inactive: 4.91%
c1ccc2c(CCNc3ccc(Nc4ccncc4)cc3)c[nH]c2c1 | inactive: -18.3%
O=C(COc1ccc(F)cc1)Nc1nnc(S(=O)(=O)N2CCCC2)s1 | inactive: -4.65%
COc1ccc(NC(=O)c2nnn(Cc3nc(-c4cc(OC)c(OC)c(OC)c4)oc3C)c2C)cc1Cl | inactive: -17.4%
COc1ccccc1CNC(=O)c1ccc2[nH]c(C)c(C)c2c1 | inactive: -3.75%
CCCCNC(=O)C(CC)Sc1nc2ccccc2c(=O)n1Cc1ccco1 (stereo unspecified) | inactive: -16.6%
COCCCNC(=O)Cn1c(=O)n(-c2ccc(C)c(C)c2)c(=O)c2c3c(sc21)CCCCC3 | inactive: -5.01%
COCCNC(=O)c1sc2ncccc2c1-n1c(C)ccc1C | inactive: -10.7%
CCC(C)n1c(=O)c2sccc2n2c(CCCC(=O)NCc3ccccc3Cl)nnc12 (stereo unspecified) | inactive: -18.8%
Cc1ccc(C(=O)c2sc(Nc3ccccc3)c(S(=O)(=O)c3ccccc3)c2N)c(C)c1 | inactive: -19.5%
CCOC(=O)c1cccc(NC(=O)Cn2c(=O)c3cccn3c3ccccc32)c1 | inactive: -8.89%
Cc1cc(C)n2nc(CNC(=O)c3c(F)cccc3F)nc2n1 | inactive: 3.31%
NCCCCCC(=O)O | inactive

Structure (SMILES) | activity change, negative = inhibition
Cc1ccc(-c2cn3cccnc3n2)cc1NC(=O)Nc1ccc(F)cc1 | inactive: 4.26%
CC(C)(C)OC(=O)N1CCC(c2c(C(=O)N3CCN(c4ccccn4)CC3)cnn2-c2ccc(F)cc2)CC1 | inactive: -24.8%
COc1ccc2c(c1)c(=O)c(S(=O)(=O)c1ccc(F)cc1)cn2Cc1ccccc1Cl | inactive: -16.6%
COc1cccc2c(C)cc3nnc(SCC(=O)Nc4ccc(C)cc4)n3c12 | inactive: 3.6%
O=C(Cn1ncc2c1-c1ccccc1OC2)N1CCN(c2ccccc2)CC1 | inactive: -19.1%
COCCNC(=O)CN1C(=O)c2cccnc2Sc2ccccc21 | inactive: -12.6%
CCCCOc1ccc(C(=O)N2CCCCC2CCN2CCOCC2)cc1 (stereo unspecified) | inactive: -6.24%
Cc1cc(Cl)ccc1OCC(=O)N(Cc1sccc1C)C1CCS(=O)(=O)C1 (stereo unspecified) | inactive: 18.4%
CC(=O)c1ccc(NC(=O)CSc2nc(-c3ccc(C)cc3)nc3c2c(=O)n(C)c(=O)n3C)cc1 | inactive: 0.958%
CCCOc1cccc(C(=O)N(Cc2sccc2C)C2CCS(=O)(=O)C2)c1 (stereo unspecified) | inactive: -19.7%
COc1ccc(CNC(=O)c2cnc(N(C)C)nc2)cc1 | inactive: -16.5%
Cc1ccc2c(c1)C(=O)[C@]1(O)CCN(c3ccccc3)C1=N2 | inactive: -6.19%
CC(C)OCCCNC(=O)CN1C(=O)c2cccnc2Sc2ccccc21 | inactive: -4.09%
O=C(Cn1cc(SCc2c(F)cccc2Cl)c2ccccc21)N1CCCCC1 | inactive: 26.9%
Cn1c(=O)n(Cc2ccccc2)c(=O)c2c1nc1n2CCN1c1ccccc1 | inactive: 0.139%
CCN(CC)CCNC(=O)CN1N=C(c2ccc(OC)cc2)CCC1=O | inactive: -8.91%
Cc1cccn2cc(-c3cccc(NC(=O)C(C)C)c3)nc12 | inactive: 17.4%
CCN(CC)CCNC(=O)C(=O)NCC(c1ccc2c(c1)OCO2)N1CCOCC1 (stereo unspecified) | inactive: -5.66%
O=C(CSc1cn(CC(=O)N2CCCCC2)c2ccccc12)NCc1ccccc1 | inactive: -30.4%
CCCN1C(=O)c2[nH]nc(-c3ccccc3)c2C1c1cccc(O)c1 (stereo unspecified) | inactive: -7.97%
CCOc1ccc(-c2nnc(SCC(=O)NCc3ccccc3Cl)o2)cc1 | inactive: -8.8%
Cc1ccc(NC(=O)c2oc3ccccc3c2NC(=O)Cc2ccccc2)cc1 | inactive: -7%
CCOc1ccc(S(=O)(=O)N2CCN(c3cccc(C(F)(F)F)c3)CC2)cc1OCC | inactive: -30.8%
COc1ccccc1NC(=O)CSC1=Nc2ccccc2C2=NC(Cc3ccccc3)C(=O)N12 (stereo unspecified) | inactive: -21%
